The RNAGym collection of RNA variant scans (doi:10.7554/elife.90254)
The source gives no read counts; variants with many changes may rest on few reads.

B1: LINE1-full (parent)
chain: UACGUAGGUGGUUUUCCCCUGAUAGUGCUAAGGGGGCCUGGAAGUUUGGACUGGGCAGAGCUCAACACAGCGUGGCAAAGUGGCUGUGGCUAGACUGCCUCUCUGGAUUCCUCGUCACUCAGCAGGGCAUCUCUGAGAGAAAUGCC

Variants of: B1
Test: self-cleavage, relative activity (ratio to wild type); higher = more cleavage; in vitro, sequencing; the parent is a self-cleaving ribozyme

Variant | self-cleavage
G54A U134C A141G | 0.66
G55C A78G U134G | 0.12
G53U A107G A117C A124G | 1.38
A50G A69G A94U A140U | 0.2
U52A A57G G70U A141G | 0.03
G54A U134C A138U | 0.58
U52A A79G U112C C113U | 0.59
U52A G54C C63U A67U A94G U112A A141G | 0.05
G53A A107U C146U | 1.14
G48U A57U U134A A136G | 0.02
U52C A140G A142G | 1.77
U52C C95U U100C | 0.48
U52C A77U U87A A129C | 0.07
G53U U102C U115C | 0.68
G55U A64U A94G A136G | 0.06
G54C U81C A140G | 1.12
A50U C113U U143C | 0.9
G49U U85C A136U | 0.13
G53U A77C A78U U102C A141G | 0.84
U52C U96A A124G U132A | 0
G54A U96C U102A A124G | 0.04
C51A A65G A79G | 0.04
A57C G72A U134C | 0.05
G49A A59U A141U | 0.53

Variant | self-cleavage
U52A U73C U100C | 1.45
C51G A64G G74A A92G | 0.1
C51A A57G U73G A138G | 1.46
G53A A94G A142G | 0.09
C56U U109C U112A A121G | 0.05
G54A A64G A117G | 0.28
G54A A77U U102G A141G | 0.07
A50G A67G G88A C113A U115C U130C U143C | 0.03
A50G U134C A141G A142G | 1.8
A50G A69U A138U | 0.03
G48U U52A U143C | 0.49
G48U U62C G105U G125C U130C | 0.07
U52A U96C U134A | 0.11
A57C U108A A129U | 0.11
A50G U87A U104C | 0.04
A57G A64U A67U | 0.05
A50G U104A U119C | 0.75
G54A A121G A141G | 0.98
C56U C90U C95U | 0.05
A50G A67G A77G C101U A141G | 1.84
A50G A57G A59U G75A | 0.41
U52A U108C U115C A138G | 0
G53A U91C U104C | 0.71
U52C A78G C145A | 1.61

Variant | self-cleavage
A57G A59U A140G | 0.52
A50G U73C A107U C133U | 2.51
U52A G60A U91C A92G U134C | 0.02
A50U A65U A78G U85A | 0.02
U52C U62A C133U | 0.07
G53A C61U U96C G105A U132C | 0.02
A50G A64U A117U | 0.51
A50G G75A U104A A141G | 1.22
C51U U119C A121G | 1.39
A50G A69G C99U U109A | 0.13
G48A U52A A69U | 0.05
G48C A140G A142G | 1.14
G54A A124G A136C A140G | 0.07
A50U A69G A77U | 0.06
G54A A77G A78G U102C U134C | 0.33
C51U A57G U96A U115C | 0
G54A A117G A141G | 0.57
U52G U102C U108A A124G A141U | 2.76
U52A A64U G114A | 0.39
U52C G93U A117G | 0.02
C51U U132A A138U | 1.71
A50G U62C U143A | 0
C51A A64U A94G G106A | 0.1
G55C A57G A65G | 0

Variant | self-cleavage
A50G U104C A141G | 1.74
U52C U62C U73C | 0
C51A A107U C123U | 0.44
G54U A77G G93A | 0
A57G A65G C68U U73A A94G | 0.05
U52C C116U G126A U130C | 1.04
A50G U85C A140G | 1.08
G48A G72A U81C U104A U108C | 1.67
G49A A57U U87A A136U | 0.05
A50G G60A U62A U132A A138G | 0.06
C56U U96C A129U | 0.06
A50G G83A U96A G114A | 0.05
U52A U81C U85C | 0.45
C51U G72U A124G | 0.92
U52A A59G A64G | 0.21
G53A A64G U109C | 0.19
A57G A65G G93A G127A A140C | 0.03
A50G U62C A67C U115A | 0
U52C G80A G88A U91C A136G | 0.04
A50G A117G U119C U143A | 1.31
U52A A117G A121G | 1.12
U52C G114C A124U | 1.48
G48A U62C A64U U143C | 0.02
A50C G89U U109C | 0.05

Variant | self-cleavage
U52A A57G U132C | 0.7
A57C U62A U100C | 0.11
G54A U62C U87C | 0
U52A A59G A67G | 0
U52A U85C U96C | 0.18
A50U A117G U143C | 1.86
U52C U96C U143C | 0.32
U52A G114A A142G U143A | 0.85
U52C A124G A136G | 1.31
C51U U96C G126A | 0.11
C51A A129G A141G A142G | 1.11
U52A U96C U102C C111U | 0.06
A50G U52A U102C U115A | 1.02
A50U A57G U108C | 1.21
G55A A64G A94G | 0.02
A50U U115C C118A U143A | 1.6
A50G C61U U130C | 0.13
U52A A59G U85A U104C | 0.28
U52A C103A U104C A142G | 1.19
A50G C51A A77G U102A | 2.73
C51A U109C A141G | 1.58
C51U C63A U96C | 0.03
A50G A77U G127A A141G | 0.83
U52A C68U U81C U112C A117U | 0.07

Variant | self-cleavage
U52A A69G C128A G137U A138G | 0.62
U52A C84U U104A | 0.05
U52C U102C C116A G139A | 1.65
U52A A69G A121C G122U | 0.74
G49C A69G A79C | 1.02
U52G A57G U130C A141G | 0.71
A50G U62C A117G U119A | 0
A50G C98G C128U | 0.04
G49U A69G A78G U81A | 0.06
A50U U85A A121C | 0.05
G49A A78G U100C | 1.91
G54A A64U A117G A140G | 0.29
A50U U62C A92U U112C G114A | 0.09
G53A A117G C123G A124G | 1.23
A50G U91C A121U | 1.03
U52A A67U A79G U81C G127A U134C | 0.18
A50G U96A U115A | 0.02
A50G A121G G125U U132C | 1.31
C51U A77C U85C | 0.16
A50G A129G U132C | 0.99
C51A C56A A57G U108A C110A A121G | 0.02
G55A A67G U73C U87A U134C | 0.05
U52C C113U A121G U130C | 1.64
U52A U102C U143C | 0.79

Variant | self-cleavage
U52C U81C C103U | 1.76
G53A U109A A121U A129C | 1.62
A50G U91C U134C | 0.18
G49U U73C U132C A136G | 1.41
A57G A64U A141G | 0.2
A50G C61U C76U U85C U104C A117U A121U | 0.05
G54A U87C A141G | 0.1
U52C G70U U108C | 0.1
U52C A65G A79G | 0
G54U A59U A69U U87A U96A A141G | 0.01
U52A U81A U87C A138G | 0.22
U52A U73A U115C | 2.03
A50C A79G U87A | 0
U52A A77G U130C U134C | 2.35
A50G A57G U130C U134A | 0.71
G49U G55C A117U | 0.03
G54A U87C A94G | 0.05
G54U U130C U134A | 1
G49A A57U A121G | 0.03
G54A A57U U87C U102C U115C | 0
A50G G54A A67G A124G | 0
A50G A78U A79G | 2.35
U52C A77G A140G A141G | 2.3
